Test results taken from PubChem BioAssay (NCATS).
Some of the results follow. These are further read-outs of the screen, such as a control signal, another cell line or another target. No call is given for them. Compounds called inactive in the main read-out are mostly missing here. Potencies come from curve fits of mixed quality, noted in brackets.

assay: qHTS Assay for Lipid Storage Modulators (AID 1519); conditions: Drosophila S3 cells, BODIPY lipid droplet/cell ratio, laser cytometry; measured here: cell count channel max response; cells loaded with oleic acid
Summary of the method: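 Cells seeded at 5,000 per well were treated with compounds over a concentration series and loaded with oleic acid (400 uM, as added). Lipid droplet fluorescence (488 nm excitation, 500-530 nm channel) was read by laser-scanning cytometry and normalized to 20 uM Triacsin C.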
Tags describe the fitted curve by direction and shape.

SMILES	max response
COc1ccc(-c2nc3cnc(N4CCOCC4)nc3n(Cc3cccc(OC)c3)c2=O)cc1	26.4%
COCCn1c(=O)c(-c2cc(F)cc(F)c2)nc2cnc(Oc3cccc(Cl)c3)nc21	15.1%
COc1ncc2nc(C)c(=O)n(C)c2n1	22.9%
CN(C)c1nc(-c2ccccc2C(F)(F)F)nc2ccccc12	27.7%
Cn1c(=O)c(CCc2ccccc2)nc2cnc(Nc3ccccc3)nc21	23.8%
Cc1cnc(CNc2ncnc3ccc(-c4ccccc4C)cc23)cn1	12.2%
Cn1c(=O)[nH]c(=O)c2[nH]cnc21	17.7%
COc1cccc(C=NC=Nc2cccc(OC)c2)c1	81.5%
O=c1c(-c2ccc(F)cc2)nc2cnc(N3CCOCC3)nc2n1Cc1ccc(F)cc1	21.1%
COc1ccc(-n2c(=O)c(CCc3ccccc3)nc3cnc(N4CCOCC4)nc32)cc1	29.4%
Cc1cccc(CNc2ncncc2-c2cccc(NS(C)(=O)=O)c2)c1	19.6%
CN(C)c1ccc(-c2ccc3ncnc(N(C)Cc4ccco4)c3c2)cc1	11.1%
O=c1cc(-c2cccc(O)c2)oc2cccc(O)c12	79.1%
COc1ccc(NS(=O)(=O)c2ccc(N)cc2)nn1	15.1%
CCCCC1C(=O)N(c2ccccc2)N(c2ccc(O)cc2)C1=O (configuration not stated)	1.91%
Cn1c(=O)c2c(ncn2CC(O)CO)n(C)c1=O (configuration not stated)	21.2%
COc1ccc(-c2nc3cnc(Nc4ccccc4)nc3n(CCC#N)c2=O)cc1	83.3%
CCNc1ncc2nc(-c3cc(F)cc(F)c3)c(=O)n(C3CC3)c2n1	-26.4%
COc1ccccc1CCn1c(=O)c(-c2cccs2)nc2cncnc21	9.05%
COc1cccc(Cn2c(=O)cnc3cnc(OCc4ccccc4)nc32)c1	22.9%
O=c1c(-c2cccs2)nc2cncnc2n1C1CC1	26.4%
CN(C)c1ncc2nc(-c3ccc(Cl)cc3)c(=O)n(C3CC3)c2n1	10.3%

same assay, conditions: Drosophila S3 cells, BODIPY lipid droplet/cell ratio, laser cytometry; measured here: cell number channel AC50; cells loaded with oleic acid

SMILES	AC50
Cn1cc(-c2nc3cnc(N4CCNCC4)nc3n(CCc3ccccc3)c2=O)c2ccccc21	39.8 µM [falling, single point]
Cc1c(CC(C)(C)C(=O)O)n(Cc2ccc(Cl)cc2)c2ccc(F)cc12	39.8 µM [rising, single point]
COc1cccc(C=NC=Nc2cccc(OC)c2)c1	28.2 µM [rising, partial curve]
O=c1cc(-c2cccc(O)c2)oc2cccc(O)c12	15.8 µM [rising, partial curve, poor fit]
COc1ccc(-c2nc3cnc(Nc4ccccc4)nc3n(CCC#N)c2=O)cc1	20 µM [rising, partial curve, poor fit]

same assay, conditions: Drosophila S3 cells, BODIPY lipid droplet/cell ratio, laser cytometry; measured here: lipid (BODIPY) channel AC50; cells loaded with oleic acid

SMILES	AC50
N#Cc1ccc(CN2CC[C@@]3(CCCN(C(=O)c4ccco4)C3)C2)cc1	1.41 µM [rising, full curve, poor fit]
CN(C)c1ncnc2ccc(-c3ccc4c(c3)OCO4)cc12	0.0178 µM [rising, full curve]
COCCn1c(=O)c(-c2ccc(Cl)cc2)nc2cnc(Oc3ccccc3)nc21	0.0178 µM [rising, full curve, poor fit]
Cc1nc2cnc(N3CCN(C)CC3)nc2n(CCc2ccccc2)c1=O	1.26 µM [rising, partial curve]
COc1cccc(Cn2c(=O)c(-c3cc(F)cc(F)c3)nc3cncnc32)c1	0.112 µM [rising, full curve, poor fit]
COc1cccc(Cn2c(=O)c(-c3cccs3)nc3cncnc32)c1	0.282 µM [rising, full curve, poor fit]
COc1ccc(Oc2ncc3nc(-c4cccc(C#N)c4)c(=O)n(CCC#N)c3n2)cc1	1.58 µM [rising, partial curve]
FC(F)(F)c1ccccc1-c1nccc(NCCN2CCOCC2)n1	10 µM [rising, partial curve]
CCNc1ncc2nc(C)c(=O)n(CCOC)c2n1	3.55 µM [rising, full curve, poor fit]
C[N+](C)(C)CCCCCNCC12CC3CC(CC(C3)C1)C2	25.1 µM [rising, partial curve, poor fit]
CNC1C(O)C2OC3OC(C)CC(=O)[C@@]3(O)O[C@H]2[C@H](NC)C1O (some centres not stated)	39.8 µM [rising, single point]
Cc1ccccc1-c1nccc(-n2ccnc2)n1	0.891 µM [rising, full curve, poor fit]
COc1ccc(-c2nc3cnc(OC)nc3n(CCC#N)c2=O)cc1	0.282 µM [rising, full curve, poor fit]
COCCn1c(=O)c(-c2ccc(OC)cc2)nc2cnc(N3CCOCC3)nc21	1.78 µM [rising, partial curve]
CN(C)C(=O)c1ccc(-c2nc(N(C)Cc3ccco3)c3ccccc3n2)cc1	1 µM [rising, full curve, poor fit]
COCCn1c(=O)c(-c2cccc(C#N)c2)nc2cnc(Oc3ccc(OC)cc3)nc21	12.6 µM [falling, single point]
COc1ccc(-c2nc3cnc(N4CCOCC4)nc3n(Cc3cccc(OC)c3)c2=O)cc1	0.224 µM [rising, full curve, poor fit]
COCCn1c(=O)c(-c2cc(F)cc(F)c2)nc2cnc(Oc3cccc(Cl)c3)nc21	1.26 µM [rising, partial curve]

SMILES	AC50
COc1ncc2nc(C)c(=O)n(C)c2n1	1.58 µM [rising, full curve, poor fit]
CN(C)c1nc(-c2ccccc2C(F)(F)F)nc2ccccc12	7.08 µM [rising, partial curve]
Cn1c(=O)c(CCc2ccccc2)nc2cnc(Nc3ccccc3)nc21	1 µM [rising, full curve]
Cc1cnc(CNc2ncnc3ccc(-c4ccccc4C)cc23)cn1	0.00794 µM [rising, full curve, poor fit]
Cn1c(=O)[nH]c(=O)c2[nH]cnc21	39.8 µM [rising, single point]
O=c1c(-c2ccc(F)cc2)nc2cnc(N3CCOCC3)nc2n1Cc1ccc(F)cc1	5.01 µM [rising, full curve, poor fit]
COc1ccc(-n2c(=O)c(CCc3ccccc3)nc3cnc(N4CCOCC4)nc32)cc1	8.91 µM [rising, partial curve]
Cc1cccc(CNc2ncncc2-c2cccc(NS(C)(=O)=O)c2)c1	10 µM [rising, partial curve, poor fit]
CN(C)c1ccc(-c2ccc3ncnc(N(C)Cc4ccco4)c3c2)cc1	0.708 µM [rising, full curve]
COc1ccc(NS(=O)(=O)c2ccc(N)cc2)nn1	0.251 µM [rising, partial curve, poor fit]
CCCCC1C(=O)N(c2ccccc2)N(c2ccc(O)cc2)C1=O (configuration not stated)	22.4 µM [falling, partial curve]
Cn1c(=O)c2c(ncn2CC(O)CO)n(C)c1=O (configuration not stated)	35.5 µM [rising, single point]
CCNc1ncc2nc(-c3cc(F)cc(F)c3)c(=O)n(C3CC3)c2n1	39.8 µM [falling, single point]
COc1ccccc1CCn1c(=O)c(-c2cccs2)nc2cncnc21	0.562 µM [rising, partial curve]
COc1cccc(Cn2c(=O)cnc3cnc(OCc4ccccc4)nc32)c1	1 µM [rising, full curve, poor fit]
O=c1c(-c2cccs2)nc2cncnc2n1C1CC1	0.1 µM [rising, full curve, poor fit]
CN(C)c1ncc2nc(-c3ccc(Cl)cc3)c(=O)n(C3CC3)c2n1	0.0158 µM [rising, full curve]
